Measurements published in PubChem BioAssay AID463173 (ICCB-Longwood Screening Facility, Harvard Medical School, 2010).
Among all 52,000 compounds or so, about 4,300 (8.3%) were called active. Cut-off read from the data, not from the text of the source: active = survival mostly below about 52% (no sharp cut-off); inactive = mostly above about 56%. The list shows a part of the results.

The molecules below were run on DeltatarO mutant (assay: S. aureus survival, RN4220 and DeltatarO strains – OD600, teichoic acid synthesis inhibitors, primary screen (AID 463173)). Conditions: S. aureus RN4220 wild type/DeltatarO growth, OD600, 18 h, active compounds read low, screened at 18.75 µg/mL (by protocol).
For `COc1ccc(Cn2c(CCC(=O)NCc3cccc(Cl)c3)nc3cccnc32)cc1`, the survival was inactive: 129%. For `CCOC(=O)c1[nH]c(C)c(CCC(=O)NCc2ccc(N(C)C)cc2)c1C`, the survival was inactive: 86%. With `COc1ccc(S(=O)(=O)NCCc2cc3ccc(C)c(C)c3[nH]c2=O)cc1` the survival was inactive: 109%. In the case of `COc1cccc(/C=C/c2nc(C#N)c(NCCN(C)C)o2)c1`, the survival is reported as inactive: 105%. In the case of `Cn1c(=O)c2c(-c3ccc(Cl)cc3)n(Cc3ccccc3)cc2n(C)c1=O`, the survival is reported as active: 40%. With `COc1cc(CN(C(=O)COc2ccc(C)cc2)c2ccccn2)cc(OC)c1OC` the survival was inactive: 86%. In the case of `CC(=O)Nc1ccc(-c2cc(C(=O)O)c3c(-c4ccccc4)[nH]nc3n2)cc1`, the survival is reported as inactive: 56%. `COc1ccc(C(=O)N2CCN(Cc3cc(=O)n4nc(-c5ccccc5C)sc4n3)CC2)cc1OC` was tested, and the survival was inactive: 123%. In the case of `COc1ccc(C)cc1NC(=O)c1ccc2c(SCC(=O)O)c3c(nc2c1)CCCC3`, the survival is reported as inactive: 77%. In the case of `COc1ccc(NC(=O)c2sc3nc[nH]c(=O)c3c2C)cc1Cl`, the survival is reported as inactive: 99%. `Cn1c(=O)n(-c2ccc3c(c2)OCO3)c2nc(-c3ccccc3)nc(C(N)=O)c21` was tested, and the survival was inactive: 68%. `CCOC(=O)CC(NC(=O)Cn1nnc(-c2ccc(C(F)(F)F)cc2)n1)c1ccc(OC)cc1` (centres undefined) was tested, and the survival was inactive: 104%. For `COc1cccc2c1cc1c(=O)n(CC(=O)N3CCN(c4cccc(C)c4)C(C)C3)nc(C)n12` (centres undefined), the survival was inactive: 116%. `Cc1cc(C)cc(NC(=O)CSc2cc(C)[nH]c(=O)n2)c1` was tested, and the survival was inactive: 90%. With `CCCC1=Nc2cc(C(=O)NC3CCCC3)ccc2Sc2ccc(C)cc21` the survival was active: 46%. With `CCCn1c(=O)sc2cc(NC(=O)COc3ccc(Cl)cc3)ccc21` the survival was inactive: 55%. `CC1CCC(NC(=O)c2ccc3c(c2)N(Cc2cccc(Cl)c2)C(=O)c2ccccc2S3(=O)=O)CC1` (centres undefined) was tested, and the survival was inactive: 74%. In the case of `CCc1ccccc1NC(=O)Cn1nnc(C(=O)NCc2ccccc2Cl)c1N`, the survival is reported as active: 20%. In the case of `CCN(CC)CC(C)CNC(=O)c1cc(-c2ccc(Br)s2)nc2ccccc12` (centres undefined), the survival is reported as active: 31%. With `COc1cccc(CN(C(=O)c2oc3cc(C)ccc3c2C)C2CCS(=O)(=O)C2)c1` (centres undefined) the survival was inactive: 57%. With `CN(C)S(=O)(=O)c1ccc2c(c1)C(=C(C#N)C#N)c1cc(S(=O)(=O)N(C)C)ccc1-2` the survival was inactive: 113%. For `CCOC(=O)c1ccc(NS(=O)(=O)c2ccc3c(c2)n(C)c(=O)n3C)cc1`, the survival was inactive: 96%. With `CCCCNC(=O)c1nn(-c2ccc(CC)cc2)nc1CO` the survival was active: 41%. With `CC(NC(=O)c1ccccc1NC(=O)c1ccccc1)C(=O)NCc1ccco1` (centres undefined) the survival was inactive: 76%.
